Laboratory results from patent US10376514B2, “Therapeutic thiophene-, furan-, and pyridine-fused azolopyrimidin-5-(6H)-ones” (Dart Neuroscience (Cayman) Ltd., priority 2012, dated 2019).

Target: full-length recombinant NH-terminal GST tagged human PDE1B enzyme (Homo sapiens (Human), UniProt Q01064)
Assay: PDE1B inhibitory assay (IMAP TR-FRET)

COc1ccc(Cn2c(=O)n3ncnc3c3cc(CN4CCOCC4(C)C)cnc32)cc1 [Example 222]
IC50: 100 to 1000 nM

C[C@@H]1CN(Cc2cnc3c(c2)c2ncnn2c(=O)n3Cc2cccc(I)c2)C[C@H](C)O1 [Example 284]
PDE1B pIC50 (negative log of half-maximal molar inhibitory concentration, 200 nM FAM-cAMP, Calmodulin, CaCl2): 6-7
